Test results as given in publication PMC4336329 (PLoS ONE, 2015).
Hit rate of the full screen: of about 310,000 compounds, about 2,200 (0.71%) showed an effect of 50% or more. The effect is printed as a negative number. This is one part of the list.

The compounds below were run against human ether-à-go-go-related gene (hERG) potassium channel (human, UniProt Q12809) (assay: primary screen, population patch clamp on CHO cells stably expressing hERG).
human ether-à-go-go-related gene (hERG) potassium channel, sequence (Q12809 whole entry, looked up): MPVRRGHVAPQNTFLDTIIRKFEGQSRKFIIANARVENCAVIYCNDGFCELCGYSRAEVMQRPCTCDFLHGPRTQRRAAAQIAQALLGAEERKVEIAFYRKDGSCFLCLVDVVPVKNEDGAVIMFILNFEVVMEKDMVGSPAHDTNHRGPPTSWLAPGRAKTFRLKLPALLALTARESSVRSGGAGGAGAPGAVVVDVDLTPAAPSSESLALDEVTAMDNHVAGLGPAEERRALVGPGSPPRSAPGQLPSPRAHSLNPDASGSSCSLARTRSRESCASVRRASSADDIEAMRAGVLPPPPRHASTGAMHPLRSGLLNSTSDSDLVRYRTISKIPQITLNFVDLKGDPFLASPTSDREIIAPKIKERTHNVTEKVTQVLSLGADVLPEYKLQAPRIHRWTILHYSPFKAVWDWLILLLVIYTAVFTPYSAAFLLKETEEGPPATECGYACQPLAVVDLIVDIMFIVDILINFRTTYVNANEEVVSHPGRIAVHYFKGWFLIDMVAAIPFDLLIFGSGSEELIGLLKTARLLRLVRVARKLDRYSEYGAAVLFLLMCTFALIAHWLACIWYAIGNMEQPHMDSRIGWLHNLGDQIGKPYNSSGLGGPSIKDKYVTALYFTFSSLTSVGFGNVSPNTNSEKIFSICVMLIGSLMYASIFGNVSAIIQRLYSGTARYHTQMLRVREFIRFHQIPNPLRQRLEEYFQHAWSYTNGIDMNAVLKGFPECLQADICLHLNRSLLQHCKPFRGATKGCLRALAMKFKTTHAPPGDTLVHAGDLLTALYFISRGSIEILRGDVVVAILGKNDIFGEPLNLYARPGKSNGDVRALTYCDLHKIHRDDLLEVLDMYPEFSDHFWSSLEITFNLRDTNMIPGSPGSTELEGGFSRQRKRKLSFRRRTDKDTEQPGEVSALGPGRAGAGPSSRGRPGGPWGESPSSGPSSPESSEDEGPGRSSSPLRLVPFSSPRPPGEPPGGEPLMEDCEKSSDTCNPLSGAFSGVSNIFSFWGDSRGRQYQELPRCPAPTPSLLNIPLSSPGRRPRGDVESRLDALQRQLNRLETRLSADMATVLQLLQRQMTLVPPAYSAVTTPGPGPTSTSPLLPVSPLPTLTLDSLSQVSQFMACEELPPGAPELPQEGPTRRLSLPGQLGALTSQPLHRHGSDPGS

SMILES	hERG current change (%, negative = inhibition) at 1uM
N#C/C(=C\c1cccs1)C(=O)NCc1ccccc1	8.46%
CC(OC(=O)CNC(=O)c1ccc(F)cc1)C(=O)Nc1ccc(S(=O)(=O)N2CCOCC2)cc1 (stereo not drawn)	0.716%
O=C(COc1ccccc1F)N1CCN(CCN2C(=O)c3cccc4cccc(c34)C2=O)CC1	-17.5%
O=P(COCCCCCOCP(=O)(c1ccccc1)c1ccccc1)(c1ccccc1)c1ccccc1	-2.19%
COc1ccccc1/C=N/NC(=O)CC(=O)NCc1ccccc1	3.35%
C=CCOc1c(CNc2ccc(C(=O)O)cc2)cccc1OC	9.62%
O=C(CCC(=O)N1CCOc2ccccc21)NC1CCN(Cc2ccccc2)CC1	-12.3%
Nc1ncnc2c1ncn2[C@H]1C[C@H](O)[C@@H](CO)O1.O	15.1%
C=CCn1cc(C(=O)OCC)c(=O)c2cc(F)c(F)cc21	9.97%
CCN(CC(=O)Nc1cc(OC)ccc1OC)Cc1nc2ccccc2c(=O)[nH]1	14%
CC(Cc1ccccc1)C(=O)N[C@@H](CO)Cc1ccccc1 (stereo partly drawn)	16.5%
COc1ccc(C2CC(c3cccc(C)c3)n3ncnc3N2)cc1 (stereo not drawn)	-2.29%
NC(=O)c1ccc(NC(=O)COC(=O)c2ccc([N+](=O)[O-])cc2)cc1	0.696%
O=[N+]([O-])c1ccc(CSc2nnc(-c3cccnc3)o2)cc1	12.6%
Cc1cccc(C)c1NC(=O)CN(C)C(=O)CSC(=S)N1CCCC1	24.1%
O=C1OCCC1Sc1nc2ccccc2n1-c1ccccc1 (stereo not drawn)	-2.37%
O=C(NNc1c(Cl)cccc1Cl)C1CCC1	13.3%
O=C(COc1ccc([N+](=O)[O-])cc1)Nc1ccncc1	-3.3%
Cc1cc(C)nc(SCc2cc(=O)c(OC(=O)c3cccc([N+](=O)[O-])c3)co2)n1	11.9%
CN(Cc1ccccc1)C(=O)CCNC(=O)Cn1cnc2ccccc2c1=O	1.46%
COCCOC(=O)C1=C(C)Nc2nc(C)nn2C1c1ccc(F)cc1 (stereo not drawn)	1.93%
CCc1ccc(/C=N/Nc2ncnc3nc[nH]c23)cc1	0.85%
Cc1ccnc(NC(=O)C2CCN(S(=O)(=O)c3ccc(C)c(C)c3)CC2)c1	5.56%

SMILES	hERG current change (%, negative = inhibition) at 1uM
CN1CCN(NC(=O)c2cn(-c3ccccc3)nc2-c2cccs2)CC1.Cl	9.3%
O=C(c1cc(C2CC2)on1)N1CCCC(N2CCN(c3ccc(F)cc3)CC2)C1 (stereo not drawn)	-16.9%
CC(C)c1ccccc1OCCCCCNCCO	5.01%
Cc1sc2ncn(CC(=O)N3CCCC(C)C3)c(=O)c2c1S(=O)(=O)N1CCCCC1 (stereo not drawn)	11%
Cc1sc2ncnc(SCC(=O)N3c4ccccc4Sc4ccc(Cl)cc43)c2c1C	0.204%
O=C(CCC1CCCCC1)NCCN1C2=NC[C@H](Cc3ccc(O)cc3)N2C[C@H]1Cc1ccc(O)cc1	12.5%
Cc1cnc(NC(=O)c2cc3c(s2)CCCC3)s1	6.25%
COc1cc(OC)c(NC(=S)NCc2ccccc2)cc1Cl	4.01%
CCOC(=O)Cn1c(=O)oc2cc(S(=O)(=O)N3CCN(C(=O)OCC)CC3)ccc21	-2.31%
Cc1nc(SC(C)C)[nH]c(=O)c1Cc1ccccc1	-5.58%
O=C(CN1CCCC1)Nc1cc(C(F)(F)F)ccc1Cl	9.23%
CC(C)n1c(NCc2cc(Cl)ccc2O)nc2ccccc21	16.2%
Cc1cccc(NC(=O)Cn2nc([N+](=O)[O-])c(Br)c2C)n1	11.4%
CCN(CC)C(=O)Cn1cnc2sc(C(=O)N3CCN(c4ccc(OC)cc4)CC3)c(C)c2c1=O	19.5%
O=C1OC(c2ccc(Br)cc2)=N/C1=C\N1CC2CC(C1)c1cccc(=O)n1C2 (stereo not drawn)	-4.83%
CCn1c(O)c(C=Nc2ccc(S(N)(=O)=O)cc2)c(=O)n(CC)c1=S	0.499%
CCOc1ccc(N2C(=O)CN=C2Nc2ccccc2Cl)cc1	5.98%
O=C(Cc1cc(=O)[nH]c(=O)[nH]1)NCc1ccccc1	3.51%
Cc1cc(C)n(CCC(=O)N/N=C/c2ccc(Cl)c([N+](=O)[O-])c2)n1	4.96%
CCc1noc(C)c1C(=O)NNC(=O)COc1ccc(Br)cc1	16.3%
CCc1nnc(NC(=O)c2ccc(-c3cc(C(F)(F)F)ccc3Cl)o2)s1	10.2%
Cc1cc(=O)oc2cc3oc(=O)cc(C)c3cc12	14.1%
O=c1[nH]c(-c2ccc(Cl)cc2)nc(=S)[nH]1	12.3%

SMILES	hERG current change (%, negative = inhibition) at 1uM
CC1(C)NC(=O)N(CC(=O)OCC(=O)Nc2sccc2C#N)C1=O	3.31%
O=C(CSCc1c(Cl)cccc1Cl)NCC1CCCO1 (stereo not drawn)	14.7%
COc1ccc(CNC(=O)CN(C(=O)CCC(=O)Nc2nccs2)c2ccc(C)cc2)cc1	15.9%
COc1ccc(NC(=O)CC2SC(=N)N(c3ccccc3)C2=O)c(OC)c1 (stereo not drawn)	11%
O=C(O)C1Nc2c(C(=O)N3CCOCC3)cccc2C2C=CCC12 (stereo not drawn)	8.6%
CCN(C(=O)COC(=O)CSc1ccc([N+](=O)[O-])cc1)C1CCS(=O)(=O)C1 (stereo not drawn)	7.04%
CCOc1ccc(-n2c([O-])cc(=O)[nH]c2=O)cc1.[NH4+]	13.9%
Cc1sc(N/N=C/c2cccnc2)nc1-c1ccccc1	11.9%
CSc1ccccc1NC(=S)N/N=C/c1cccn1Cc1cccc(C)c1	6.42%
O=C1C(Cl)=C(N2CCOCC2)C(=O)N1c1ccccc1Cl	-2.9%
COCCNC(=O)NC(=O)COC(=O)c1cccn1C	8.04%
Cl.OCCNc1nc(N2CCN(Cc3ccccc3)CC2)nc2ccccc12	-28.6%
Cc1ccc(CNC(=O)CCNC(=O)N2CCn3c2nc2ccccc23)cc1	0.827%
COc1ccc(C(=O)Nc2ccccn2)cc1S(=O)(=O)N1CCOCC1	11.8%
CCc1noc(C)c1C(=O)OCC(=O)N(CC)c1c(N)n(Cc2ccccc2)c(=O)[nH]c1=O	13.3%
O=C1CCC(C(=O)N2CCCC2)CN1Cc1cccc(C(F)(F)F)c1 (stereo not drawn)	14.3%
CCOC(=O)C1=C2N(C)c3ccccc3N2CCC1=O	6.37%
CCC(NC(C)C)C(O)c1ccc(O)c2[nH]c(=O)ccc12.Cl (stereo not drawn)	8.22%
O=C1COc2ccc(C(=O)COC(=O)c3cccnc3Cl)cc2N1	13.9%
COc1ccccc1NC(=S)Nc1ccccn1	10.9%
CC1(C)CC2CC(C)(CN2C(=O)c2ccc([N+](=O)[O-])cc2)C1 (stereo not drawn)	-5.6%
COc1ccc(C(=O)c2ccc(N(C)C)cc2)c2ccccc12	15%
COc1ccccc1-c1c(NC(=O)c2ccco2)n(C)c2ccccc2c1=O	15.3%

SMILES	hERG current change (%, negative = inhibition) at 1uM
c1ccc(-c2nnnn2-c2ccccc2)cc1	12.4%
O=C(O)Cn1c(O)c(C=Nc2ccccc2)sc1=S [4242532]	13.9%
COc1cc(OC)cc(C(=O)NCCNC(=O)c2ccco2)c1	8.2%
Cc1sc2nc(C3CC3)nc(NCCNS(C)(=O)=O)c2c1C	11.6%
CSCC[C@H](NC(=O)Cc1ccc(Cl)cc1)C(=O)N1CCC2(CC1)NCCc1[nH]cnc12	6.03%
Cc1cc(NC(=O)CSc2nnc(CNC(=O)c3cccc(C(F)(F)F)c3)o2)no1	8.69%
COCCn1c(=N)c(C(=O)NCCc2ccc(OC)cc2)cc2c(=O)n3cccc(C)c3nc21	-95.4%
Cc1cc(C)cc(OCc2nnc(SCC(=O)OC(C)C)o2)c1	14.5%
O=C(NCc1ccccc1Cl)NC(=O)c1ccccc1	9.35%
COC(=O)Nc1nnc(Cc2ccccc2)s1	5.95%
Cc1cccc(NS(=O)(=O)Cc2ccccc2)c1C	29.7%
C[N+](C)(C)CCCC(=O)c1ccc2c(c1)OCO2.[Cl-]	12.2%
CCOC(=O)C1=C(c2ccccc2)ON(C)C1c1ccccc1 (stereo not drawn)	3.7%
N=c1c2c(-c3ccccc3)c(-c3ccccc3)n(Cc3ccccc3)c2ncn1CCCn1ccnc1	-32%
CC(=O)N1CCN(c2ccc(NCc3cccc(C)c3)cc2)CC1	15.7%
CSCCC(NC(=O)c1cccc(C)c1)C(=O)Nc1sccc1C(N)=O (stereo not drawn)	16.1%
CCn1c(=O)cc(SCC(=O)N2CCN(Cc3ccc4c(c3)OCO4)CC2)c2ccccc21	10.1%
CCCc1cc(C(F)(F)F)c(C#N)c(=O)[nH]1	9.03%
Cc1ccc(N/C(SCc2ccccc2C)=C(/C#N)C(=O)NCc2ccco2)cc1C	10%
Cc1nc(CCNC(=O)COc2ccccc2)cs1	17%
CCOc1ccc(-c2noc(CCCC(=O)NCC3CCCO3)n2)cc1OC (stereo not drawn)	9.51%
